# “And” between values parts separate entries of the source, which are not always exact repeats. Equal entries are not always repeated. Out of some 410,000 compounds screened, about 6,400 (1.6%) were called active. Inconclusive results, whose numbers are uncertain, are shown with a selection of clear calls. The call rests on the fitted dose curve; in most records, active means well fitted inhibition curve with a large enough effect; inconclusive means small, poorly fitted or top-dose-only effect; inactive means no such curve, though single readings can be large or run the other way. Potencies beside an inconclusive call are fits to weak or partial responses and may not hold up.
# Molecular target: Glucagon-like peptide 1 receptor (Homo sapiens) (UniProt P43220)
# Chain of UniProt P43220 (P43220 whole entry, looked up): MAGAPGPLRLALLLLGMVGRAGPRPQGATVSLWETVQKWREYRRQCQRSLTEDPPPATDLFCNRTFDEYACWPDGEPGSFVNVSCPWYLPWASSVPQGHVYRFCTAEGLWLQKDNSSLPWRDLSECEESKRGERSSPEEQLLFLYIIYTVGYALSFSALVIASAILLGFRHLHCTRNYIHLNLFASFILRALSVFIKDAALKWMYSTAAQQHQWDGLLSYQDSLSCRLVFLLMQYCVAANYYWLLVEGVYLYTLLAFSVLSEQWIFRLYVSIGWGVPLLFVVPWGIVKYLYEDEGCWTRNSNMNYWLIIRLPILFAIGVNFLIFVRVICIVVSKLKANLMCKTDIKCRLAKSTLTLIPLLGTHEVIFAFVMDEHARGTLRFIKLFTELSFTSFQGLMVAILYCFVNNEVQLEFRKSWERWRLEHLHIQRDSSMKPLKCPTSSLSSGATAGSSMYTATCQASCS
# Assay: qHTS of GLP-1 Receptor Inverse Agonists (Inhibition Mode); further: nearly all actives have a fitted effect of over 55% in size
# Conditions: HEK293 GLP-1R CRE-luciferase, luminescence, 24 h, GLP-1R form is constitutively active; activity change, negative = inhibition: at 38.3 µM (top of the series) unless noted
# Outline: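 Assay principle: reduced luminescence from a cAMP-responsive reporter in HEK293 cells co-expressing a constitutively active GLP-1R. Conditions: 24 hr compound incubation, 37 deg C, 5% CO2.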
# On the % scale 0 is the no-effect control and ±100 the full control effect; potency means the concentration at half of the fitted maximal effect; tags describe the fitted curve by direction and shape.
Structure (SMILES),Potency,"activity change, negative = inhibition"
CCCOc1ccc(-c2nnn(CC(=O)N3CCCCC3)n2)cc1,"inconclusive: 28.2 µM [inhibitor, single point]",–
CCOC(=O)/C=c1/s/c(=C\c2c(OC)ccc3ccccc23)c(=O)n1CC(=O)NCC1CCCO1 (centres undefined),"inconclusive: 10 µM [inhibitor, partial curve]",–
CN(Cc1ccccc1)C(=O)c1ccc(NC(=O)Cc2ccc(NC(=O)C3CCCN(C(=O)c4ccccc4)C3)cc2)cc1 (centres undefined),"inconclusive: 7.94 µM [inhibitor, partial curve, poor fit]",–
CC1=Nc2cc(C(=O)NCCc3ccc(Cl)cc3)ccc2Sc2ccc(C)cc21,"inconclusive: 5.62 µM [inhibitor, full curve, poor fit]",–
CCC(CC)C(=O)NC1CC(=O)N(c2ccc3c(c2)OCCO3)C1 (centres undefined),–,inactive: 23%
Cc1ccc(C)c(NC(=O)c2ccc3c(c2)N(Cc2ccc(F)cc2)C(=O)CS3=O)c1 (centres undefined),"inconclusive: 3.55 µM [inhibitor, partial curve, poor fit]",–
Cc1ccc(-c2ccc(=O)n(Cc3cc(C)ccc3C)n2)cc1,"inconclusive: 28.2 µM [inhibitor, single point] and inconclusive: 22.4 µM [inhibitor, single point]",–
CCCc1cc(N2CCCC(C(=O)Nc3cc(Cl)ccc3OC)C2)n2ncnc2n1 (centres undefined),–,inactive: 1.03%
OC(c1ccc(Cl)c(F)c1)c1ncc(-c2cccc(F)c2)[nH]1 (centres undefined),"inconclusive: 31.6 µM [inhibitor, partial curve, poor fit]",–
C=CCN1C(=O)C(Cc2ccc(OC)cc2)S/C1=N/N=C/c1ccco1 (centres undefined),"inconclusive: 10 µM [inhibitor, single point]",–
CCCCOc1ccc(C(=O)NCC(=O)NCC(c2ccco2)N2CCCCC2)cc1 (centres undefined),"inconclusive: 28.2 µM [inhibitor, single point]",–
CC(/C=C1\SC(=S)N(CCC(=O)Nc2ccc(O)cc2)C1=O)=C\c1ccccc1,"inconclusive: 7.08 µM [inhibitor, partial curve, poor fit]",–
O=C(CSc1nnc(-c2ccc3c(c2)OCCO3)o1)N1CCCC1,"inconclusive: 11.2 µM [inhibitor, partial curve, poor fit]",–
COc1cccc(/C=N/NC(=O)c2ccc(OCc3cccc(Br)c3)cc2)c1,"inconclusive: 5.01 µM [inhibitor, full curve, poor fit]",–
C=C(C)Cn1c(N2CC(C)CC(C)C2)nc2c1c(=O)[nH]c(=O)n2C (centres undefined),–,inactive: 6.42%
CC(C)(C)c1cc(CCC(=O)N2CCNCC2)c(C(C)(C)C)cc1O,"inconclusive: 28.2 µM [inhibitor, single point]",–
COc1ccc(NC(=O)CSCC(=O)Nc2cc(Cl)ccc2N2CCCC2)cc1,"inconclusive: 8.91 µM [inhibitor, partial curve, poor fit]",–
CC1c2[nH]c3ccccc3c2CCN1C(=O)Nc1ccccc1 (centres undefined),"inconclusive: 11.2 µM [inhibitor, partial curve, poor fit]",–
Cc1onc(-c2ccc(Cl)cc2Cl)c1-c1csc(N/N=C/c2ccccc2)n1,"inconclusive: 12.6 µM [inhibitor, partial curve, poor fit]",–
CN(C)CCNC(=O)c1ccc(-n2c(-c3ccccc3)cc3c2CCCC3)cc1,"inconclusive: 28.2 µM [inhibitor, single point]",–

Structure (SMILES),Potency,"activity change, negative = inhibition"
COc1cc(C(=O)NC(=S)Nc2ccc3ccccc3c2)cc(OC)c1OC,"inconclusive: 10 µM [inhibitor, partial curve, poor fit]",–
COc1ccc(NS(=O)(=O)c2cc(C(=O)N3CCN(C/C=C/c4ccccc4)CC3)ccc2C)cc1,"inconclusive: 22.4 µM [inhibitor, partial curve, poor fit]",–
O=S(=O)(NCCOC12CC3CC(CC(C3)C1)C2)c1cccc2nsnc12,"inconclusive: 8.91 µM [inhibitor, partial curve, poor fit]",–
CC(=O)Oc1cc(C(=O)OCC(=O)NC23CC4CC(CC(C4)C2)C3)cc(OC(C)=O)c1OC(C)=O,"inconclusive: 28.2 µM [inhibitor, single point]",–
Cc1ccc(S(=O)(=O)N2CCCc3cc(NS(=O)(=O)c4ccc(F)c(C)c4)ccc32)cc1,"inconclusive: 25.1 µM [inhibitor, single point]",–
CC1CCN(c2nc3ccc(C(=O)N4CCN(Cc5ccccc5)CC4)cc3s2)CC1,"inconclusive: 12.6 µM [inhibitor, single point]",–
Cc1onc(-c2ccccc2)c1C(=O)OCC(=O)Nc1cccc(Cl)c1,"inconclusive: 31.6 µM [inhibitor, single point]",–
S=C(NCc1ccco1)Nc1ccc(Oc2ccccc2)cc1,"inconclusive: 11.2 µM [inhibitor, single point]",–
Cc1cccc(-c2nsc(SCC(=O)NCc3ccc4c(c3)OCO4)n2)c1,"inconclusive: 14.1 µM [inhibitor, single point]",–
C/C(=N\NC(=O)C(c1ccccc1)c1ccccc1)c1ccccn1,active: 2.82 µM,–
CCOc1ccc(-c2cc(N)n(S(=O)(=O)c3cccc4nsnc34)n2)cc1,"inconclusive: 11.2 µM [inhibitor, partial curve, poor fit]",–
Brc1cc(Br)c2ncnc(N3CCCCC3)c2c1,"inconclusive: 11.2 µM [inhibitor, partial curve, poor fit]",–
FC(F)(F)c1cccc(NC(=S)Nc2ccc(Cl)c(Cl)c2)c1,"inconclusive: 22.4 µM [inhibitor, single point]",–
CCNS(=O)(=O)c1ccc(NC(=O)Nc2ccccc2OC)cc1,"inconclusive: 11.2 µM [inhibitor, partial curve, poor fit]",–
Cc1nc2nc(SCC(N)=O)[nH]c2cc1Br,–,inactive: 38.8%
COc1cccc(C(=O)NCCSc2c(-c3ccc(F)cc3)[nH]c3ccccc23)c1OC,"inconclusive: 11.2 µM [inhibitor, partial curve, poor fit]",–
O=C1CN(C(=O)c2ccc(S(=O)(=O)N3CCCCC3)cc2)C(c2ccc(F)cc2)c2cc(F)ccc2N1 (centres undefined),"inconclusive: 28.2 µM [inhibitor, single point]",–
COCCCNc1nc2c(c(=O)n(Cc3ccc(OC)cc3)c(=O)n2C)n1C,–,inactive: 19.1%
Cc1cc(CC(=O)O)c(C)cc1CC(=O)O,"inconclusive: 0.501 µM [inhibitor, full curve, poor fit]",–
CC(Oc1ccc(F)cc1)C(=O)NCC1(N(C)C)CCCCC1 (centres undefined),–,inactive: -6.93%

Structure (SMILES),Potency,"activity change, negative = inhibition"
Cc1ccc(/C=N/NC(=O)c2nnn(-c3nonc3N)c2-c2cccs2)cc1,"inconclusive: 4.47 µM [inhibitor, partial curve]",–
Cc1ccc(C2=NN3C(C2)c2ccccc2OC32C(=O)Nc3ccccc32)cc1 (centres undefined),"inconclusive: 11.2 µM [inhibitor, single point]",–
COc1ccc(-c2noc(CN3CCN(c4ccccc4)CC3)n2)cc1,"inconclusive: 28.2 µM [inhibitor, single point]",–
Cc1ccc(C(=O)NCCn2c(C)cc3ccccc32)cc1C,"inconclusive: 8.91 µM [inhibitor, partial curve, poor fit]",–
O=C(Nc1ccc2c(c1)OCCO2)C(CCc1ccccc1)N1CCC(Cc2ccccc2)CC1 (centres undefined),"inconclusive: 10 µM [inhibitor, partial curve]",–
O=C(/C=C/c1ccco1)Nc1cccc(-c2nc3ccccc3[nH]2)c1,"inconclusive: 10 µM [inhibitor, single point]",–
COc1cccc(NC(=O)C2(C)CCN2Cc2cccc(OC)c2F)c1 (centres undefined),"inconclusive: 10 µM [inhibitor, partial curve, poor fit]",–
CC(=NNC(=S)N1CC2CCC(CC2)C1)c1ccccn1,"inconclusive: 11.2 µM [inhibitor, partial curve, poor fit]",–
COc1ccccc1CC(=O)Nc1cccc2c1CCCC2,"inconclusive: 12.6 µM [inhibitor, single point]",–
CCOC(=O)C(CCCCOc1cccc(CC)c1)C(=O)OCC,"inconclusive: 10 µM [inhibitor, single point]",–
CC(=O)N1CCc2c(sc(NC(=O)c3ccc([N+](=O)[O-])o3)c2C(N)=O)C1,–,inactive: 7.59%
O=C(NC1CCN(Cc2ccccc2)CC1)c1cn(-c2ccccc2)nc1-c1cccnc1,"inconclusive: 28.2 µM [inhibitor, single point]",–
O=C(Nc1ccc(NC(=O)C2CCCCC2)nc1)c1cccs1,"inconclusive: 6.31 µM [inhibitor, full curve, poor fit]",–
CC1(C)Cc2cccc(OCC(=O)N3CCN(c4cccc(Cl)c4)CC3)c2O1,"inconclusive: 20 µM [inhibitor, single point]",–
CCOC(=O)NC(NC(=S)Nc1ccc(OC)cc1)C(Cl)(Cl)Cl (centres undefined),"inconclusive: 14.1 µM [inhibitor, single point]",–
CC1CN(C(=O)Nc2ccc(C(=O)NCc3cccc(F)c3)cc2)c2ccccc2S1 (centres undefined),"inconclusive: 11.2 µM [inhibitor, single point]",–
COc1ccc(C(CNC(=O)c2cc(S(=O)(=O)Nc3cccc(C)c3)ccc2C)N2CCOCC2)cc1 (centres undefined),"inconclusive: 7.94 µM [inhibitor, partial curve]",–
Cc1oc(-c2ccc(Cl)cc2)nc1CN1CCCC(C(=O)N2CCOCC2)C1 (centres undefined),"inconclusive: 12.6 µM [inhibitor, partial curve, poor fit]",–
CC(C)(C)NC(=O)C(c1ccc(F)cc1)N(CCc1ccccc1)C(=O)c1ccn[nH]1 (centres undefined),"inconclusive: 11.2 µM [inhibitor, single point]",–

# — PubChem BioAssay AID624417 (National Center for Advancing Translational Sciences (NCATS), 2012)
